Assay results reported in PubChem BioAssay (NCATS).
Several values for one entry are separate records, joined by “and”; a condition that tells them apart may be missing. Identical values can stand only once. This list was built around the results that the source calls inconclusive (neither active nor inactive); the mix of calls is not that of the screen. For part of these data: Potencies of inconclusive entries are doubtful fits and often do not repeat. Activity calls are given as the source filed them. Unless noted, calls follow the shape of the dose curve; as a rule, active = well fitted curve in either direction with a large enough effect (not every such curve was filed as active); inconclusive = small, poorly fitted or top-dose-only effect, or another doubt; inactive = flat fitted curve, though single readings scatter.

Columns and labels:
[1] = NFAT Signaling Pathway (AID 444); settings: Jurkat NFAT-bla M1, carbachol, beta-lactamase ratio, 5 h;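 also: carbachol stimulus at about its EC50 of 1 µM final; % is scaled to controls: 0 for no effect and ±100 for the full control effect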
Procedure, shortened: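 Jurkat cells carrying an NFAT-driven β-lactamase reporter and co-transfected muscarinic M1 receptor were treated with compound plus carbachol (1 uM final, an EC50 level) for 5 h at 37 °C. CCF4 loading followed for 1 h at RT; 460/530 nm ratio gave %activity.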

[2] = target: Mitogen-activated protein kinase 10 (Mus musculus) (UniProt Q61831); assay: JNK3 AlphaScreen Assay (AID 530); settings: JNK3 lysate, c-Jun phosphorylation; activity change, negative = inhibition: at 57.1 µM (top of the series);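 also: kinase came from lysate of stimulated human HepG2 cells; signal reports phosphorylation of biotinylated GST-cJun 1-79 at Ser73 with 10 µM ATP; potency is read from the fitted curve at half-maximal effect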
Procedure, shortened: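 JNK3 came from HepG2 lysates pre-activated with IL-1beta and TNF-alpha and phosphorylated biotinylated GST-cJun (1-79) at 10 uM ATP, pH 7.6, room temperature. Compounds were titrated. AlphaScreen signal used anti-phospho-cJun (Ser73) antibody.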

[3] = qHTS Assay for Identification of Small Molecule Agonists for Thrombopoietin (TPO) Signaling Pathway (AID 917; active = well fitted curve in the direction sought with a large enough effect; inconclusive = small, poorly fitted or top-dose-only effect, or another doubt; inactive = no such curve, though single readings can be large; an effect the other way counts as inactive or inconclusive; also: potency is read from the fitted curve at half-maximal effect; as to activity, positive = activation: % is scaled to controls: 0 for no effect and ±100 for the full control effect); settings: TPO signaling pathway reporter cells, agonist qHTS, stimulated with TPO at its EC50; activity, positive = activation: at 38.5 µM (top of the series)
Procedure, shortened: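 Luminescence from a Glycoprotein IIb promoter–driven luciferase reporter served as read-out in murine Ba/F3 cells carrying the human TPO receptor. Cells, deprived of IL-3 overnight, received compounds with 26 pM TPO and were incubated 24 hrs at 37 C.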

[4] = qHTS Assay for Identification of Small Molecule Antagonists for Thrombopoietin (TPO) Signaling Pathway (AID 918; active = well fitted curve in the direction sought with a large enough effect; inconclusive = small, poorly fitted or top-dose-only effect, or another doubt; inactive = no such curve, though single readings can be large; an effect the other way counts as inactive or inconclusive; also: nearly all actives have a fitted effect of over 60% in size); settings: TPO-dependent cell signaling reporter, antagonist mode; activity change, negative = inhibition: at 38.5 µM (top of the series)
Procedure, shortened: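 First, Ba/F3 reporter cells expressing human TPO receptor were held overnight without IL-3. Next, compound and 26 pM TPO were added. After 24 hrs incubation at 37 C, luciferase luminescence under the Glycoprotein IIb promoter was recorded.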

[5] = Stat Signaling Pathway (AID 446); settings: ME-180 SIE beta-lactamase reporter, IL-6 stimulated, 5 h; at 7.69 µM (top of the series) unless noted;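 also: ME-180 cervical cancer cells given 40 pM IL-6 alongside compound; SIE-controlled beta-lactamase reporter measured as 460/530 nm FRET emission ratio; top concentration of the series differs between compounds; % is scaled to controls: 0 for no effect and ±100 for the full control effect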
Procedure, shortened: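 ME-180 cells carrying a SIE-driven beta-lactamase reporter are stimulated with 40 pM IL-6 for 5 h at 37C in the presence of compound. The 460/530 nm FRET substrate ratio is read after 2.5 h at RT. Data are normalised to 300 pM IL-6 and to 125 nM JAK inhibitor controls.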

[6] = target: Cytochrome P450 2D6 (Homo sapiens) (UniProt P10635); assay: qHTS Assay for Inhibitors and Substrates of Cytochrome P450 2D6 (AID 891; active = well fitted curve in the direction sought with a large enough effect; inconclusive = small, poorly fitted or top-dose-only effect, or another doubt; inactive = no such curve, though single readings can be large; an effect the other way counts as inactive or inconclusive;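 also: luciferin methyl ether substrate demethylated by CYP2D6 with NADPH regeneration; potency is read from the fitted curve at half-maximal effect; nearly all actives have a fitted effect of over 60% in size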); settings: recombinant CYP2D6, luciferin-ME EGE luminescence; activity change, negative = inhibition: at 57.1 µM (top of the series)
UniProt P10635, sequence (P10635 whole entry, looked up): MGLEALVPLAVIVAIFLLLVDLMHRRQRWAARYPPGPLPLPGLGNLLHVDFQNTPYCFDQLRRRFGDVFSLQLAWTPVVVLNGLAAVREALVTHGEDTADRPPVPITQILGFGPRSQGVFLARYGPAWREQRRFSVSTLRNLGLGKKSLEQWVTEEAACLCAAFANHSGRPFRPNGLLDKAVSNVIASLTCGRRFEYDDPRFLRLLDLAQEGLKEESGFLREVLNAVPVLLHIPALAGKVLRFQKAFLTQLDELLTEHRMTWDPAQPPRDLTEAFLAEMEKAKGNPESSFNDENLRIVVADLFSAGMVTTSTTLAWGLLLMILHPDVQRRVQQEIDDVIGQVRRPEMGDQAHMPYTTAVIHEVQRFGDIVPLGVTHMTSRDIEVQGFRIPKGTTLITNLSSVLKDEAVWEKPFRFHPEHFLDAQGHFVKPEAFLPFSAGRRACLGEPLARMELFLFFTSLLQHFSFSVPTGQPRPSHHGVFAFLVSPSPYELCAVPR
Procedure, shortened: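 Human CYP2D6 (5 nM) with 30 uM Luciferin-ME EGE (at Km) in 100 mM KPO4, compound preincubated 10 min, then NADPH regeneration system for 60 min at room temperature. Luciferin read by luminescence; normalized to 1.43 uM quinidine.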

[7] = target: 3',5'-cyclic-AMP phosphodiesterase 4B (Homo sapiens) (UniProt Q07343); assay: qHTS Assay for Inhibitors of PDE-IV (AID 607; active = well fitted activation curve with a large enough effect in the main read-out, with a control signal flat, not every such curve was filed as active; inconclusive = small, poorly fitted or top-dose-only effect, or effect the other way, or a change in a side signal; also: potency is read from the fitted curve at half-maximal effect); settings: HEK293 ACTOne CNG channel cells, membrane potential fluorescence; activation (PDE inhibition): at 22.9 µM (top of the series)
UniProt Q07343, sequence (Q07343 whole entry, looked up): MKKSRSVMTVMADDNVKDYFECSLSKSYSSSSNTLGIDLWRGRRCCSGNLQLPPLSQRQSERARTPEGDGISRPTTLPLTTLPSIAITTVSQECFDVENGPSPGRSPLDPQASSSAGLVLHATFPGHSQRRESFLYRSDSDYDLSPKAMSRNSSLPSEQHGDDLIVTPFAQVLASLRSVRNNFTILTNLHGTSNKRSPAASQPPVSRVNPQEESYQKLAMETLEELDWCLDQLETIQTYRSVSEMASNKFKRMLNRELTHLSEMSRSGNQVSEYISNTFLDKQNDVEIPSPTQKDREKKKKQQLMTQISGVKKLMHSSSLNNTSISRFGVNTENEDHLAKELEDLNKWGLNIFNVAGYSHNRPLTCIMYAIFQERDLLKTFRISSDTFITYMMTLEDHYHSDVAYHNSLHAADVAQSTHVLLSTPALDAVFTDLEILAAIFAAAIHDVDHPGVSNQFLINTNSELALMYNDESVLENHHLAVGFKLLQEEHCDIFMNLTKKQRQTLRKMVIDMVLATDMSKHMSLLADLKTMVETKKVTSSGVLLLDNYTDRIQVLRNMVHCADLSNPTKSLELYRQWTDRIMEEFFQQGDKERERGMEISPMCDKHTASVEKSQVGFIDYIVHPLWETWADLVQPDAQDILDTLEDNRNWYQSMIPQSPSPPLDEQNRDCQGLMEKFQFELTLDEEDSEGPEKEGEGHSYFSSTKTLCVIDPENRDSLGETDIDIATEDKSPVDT
Procedure, shortened: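 HEK293 ACTOne cells with CNG channel (1000/well), endogenous PDE4; membrane potential dye, compounds up to 22.9 uM final. Fluorescence Ex 535/Em 590; RO 20-1724 (100 uM final) as reference.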

[8] = qHTS Assay for Identification of Small Molecule Antagonists for NFkB Signaling Pathway (AID 895; active = well fitted inhibition curve with a large enough effect in the signal ratio, with a control signal flat, not every such curve was filed as active; inconclusive = small, poorly fitted or top-dose-only effect, or effect the other way, or a change in a side signal; the % refers to the signal ratio; also: potency is read from the fitted curve at half-maximal effect); settings: NFkB beta-lactamase reporter cells, FRET ratio 460/530, stimulated with 10 pM TNF alpha; activity change, negative = inhibition: at 38.3 µM (top of the series)
Procedure, shortened: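 NFkB-bla ME-180 cervical carcinoma cells with beta-lactamase reporter under NFkB response element; compounds added, then TNF alpha at 10 pM final (EC50), 5 h at 37 C. LiveBLAzer substrate 2 h, room temperature; emission 460/530 nm at 405 nm excitation.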

[9] = target: Cytochrome P450 2C19 (Homo sapiens) (UniProt P33261); assay: qHTS Assay for Inhibitors and Substrates of Cytochrome P450 2C19 (AID 899; active = well fitted curve in the direction sought with a large enough effect; inconclusive = small, poorly fitted or top-dose-only effect, or another doubt; inactive = no such curve, though single readings can be large; an effect the other way counts as inactive or inconclusive; also: potency is read from the fitted curve at half-maximal effect; nearly all actives have a fitted effect of over 60% in size)
UniProt P33261, sequence (P33261 whole entry, looked up): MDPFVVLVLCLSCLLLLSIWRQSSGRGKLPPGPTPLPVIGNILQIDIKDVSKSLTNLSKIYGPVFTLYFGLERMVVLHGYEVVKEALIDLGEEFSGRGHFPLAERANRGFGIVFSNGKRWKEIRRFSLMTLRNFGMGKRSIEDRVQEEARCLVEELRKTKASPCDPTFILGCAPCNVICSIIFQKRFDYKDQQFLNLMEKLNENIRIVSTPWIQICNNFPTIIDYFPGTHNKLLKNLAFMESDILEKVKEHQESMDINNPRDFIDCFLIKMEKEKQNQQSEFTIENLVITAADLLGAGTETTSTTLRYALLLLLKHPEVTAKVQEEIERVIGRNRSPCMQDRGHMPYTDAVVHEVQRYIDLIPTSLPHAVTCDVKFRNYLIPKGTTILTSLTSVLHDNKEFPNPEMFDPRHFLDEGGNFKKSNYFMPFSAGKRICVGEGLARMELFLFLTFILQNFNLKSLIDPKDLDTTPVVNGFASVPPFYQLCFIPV
Procedure, shortened: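 In 50mM KPO4, the reaction held 5nM enzyme and KM-level (10uM) Luciferin-H EGE; it ran 60 min at 37C after NADPH regeneration and a 10 min compound preincubation. Luminescence values were scaled to 57uM ketoconazole as complete inhibition.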

[10] = target: Muscarinic acetylcholine receptor M1 (Rattus norvegicus) (UniProt P08482); assay: qHTS Assay for Antagonists of Acetylcholine Muscarinic M1 Receptor: Kinetic Measurement of Intracellular Calcium Response (AID 943; active = well fitted curve in the direction sought with a large enough effect; inconclusive = small, poorly fitted or top-dose-only effect, or another doubt; inactive = no such curve, though single readings can be large; an effect the other way counts as inactive or inconclusive; also: potency is read from the fitted curve at half-maximal effect; nearly all actives have a fitted effect of over 75% in size)
UniProt P08482, sequence (P08482 whole entry, looked up): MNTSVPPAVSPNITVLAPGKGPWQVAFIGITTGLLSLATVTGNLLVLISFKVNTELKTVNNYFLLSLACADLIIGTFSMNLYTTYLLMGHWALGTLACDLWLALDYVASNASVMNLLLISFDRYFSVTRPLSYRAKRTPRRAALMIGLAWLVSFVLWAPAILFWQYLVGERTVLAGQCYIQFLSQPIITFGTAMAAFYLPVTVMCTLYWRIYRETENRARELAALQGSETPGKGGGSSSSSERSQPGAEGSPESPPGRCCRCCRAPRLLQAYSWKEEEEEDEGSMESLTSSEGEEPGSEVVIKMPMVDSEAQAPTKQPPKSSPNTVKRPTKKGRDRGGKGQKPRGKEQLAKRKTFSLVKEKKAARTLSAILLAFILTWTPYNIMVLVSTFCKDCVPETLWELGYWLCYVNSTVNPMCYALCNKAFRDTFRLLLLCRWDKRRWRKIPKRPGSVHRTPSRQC
Procedure, shortened: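 Intracellular calcium flux, recorded with Fluo-4 in a kinetic plate reader, served as signal; the response to carbachol at EC80 (100 nM final) was taken as maximal over minimal fluorescence after a 10 min compound pre-incubation in rat M1-CHO cells.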

[11] = target: Muscarinic acetylcholine receptor M1 (Rattus norvegicus) (UniProt P08482); assay: qHTS Assay for Antagonists of Acetylcholine Muscarinic M1 Receptor: Measurement of IP-One Response (AID 944; active = well fitted curve in the direction sought with a large enough effect; inconclusive = small, poorly fitted or top-dose-only effect, or another doubt; inactive = no such curve, though single readings can be large; an effect the other way counts as inactive or inconclusive; also: potency is read from the fitted curve at half-maximal effect; nearly all actives have a fitted effect of over 75% in size)
[12] = at 17.2 µM (top of the series) unless noted
Tags tell the direction and shape of the fitted curve or compound fluorescence and quenching.

## CN1[C@@H]2CC[C@H]1CC(OC(=O)[C@@H](CO)c1ccccc1)C2 (stereo partly drawn)
[1]; at 17.2 µM (top of the series)
  activity change, negative = inhibition: inconclusive: -48.4% [inhibitor] and active: -38.1%
[1]; at 38 µM (top of the series)
  activity change, negative = inhibition: inconclusive: -63.9% [inhibitor] and inconclusive: -64.2% [inhibitor]
[2]
  Potency: inconclusive: 3.98 µM [activator, partial curve, poor fit]
[3]
  Potency: inactive
[4]
  activity change, negative = inhibition: inconclusive: -3.85% [phenotype inactive] and inconclusive: -11.1% [phenotype inactive]

## CCCCCCn1cc(C(=O)O)c(=O)c2ccccc21
[1]; [12]
  activity change, negative = inhibition: inconclusive: 70.2% [activator]
[5]
  activity, negative = inhibition: inactive: 8.19% [at 17.2 µM]

## N#C/C(C(=O)N1CCCCC1)=C1\Nc2ccccc2S1
[1]; [12]
  activity change, negative = inhibition: inactive: 11.9%

## c1ccc(CN2CCN(c3ncnc4c3[nH]c3ccccc34)CC2)cc1
[1]; [12]
  activity change, negative = inhibition: inconclusive: -64.8% [inhibitor]
[5]
  activity, negative = inhibition: inconclusive: -54.2% [inhibitor] [at 17.2 µM]

## C(CCc1nnc2c(n1)CCCC2)Cc1nnc2c(n1)CCCC2
[1]; [12]
  activity change, negative = inhibition: inactive: -8.87% [at 7.69 µM]

## CN(C)CC[C@H](c1ccc(Br)cc1)c1ccccn1
[1]; at 17.2 µM (top of the series)
  activity change, negative = inhibition: inconclusive: -46.9% [inhibitor]
[1]; at 38 µM (top of the series)
  activity change, negative = inhibition: inconclusive: -68.8% [inhibitor] and inconclusive: -77.3% [inhibitor]
[5]
  activity, negative = inhibition: inconclusive: 166% [activator] [at 38 µM]
[6]
  Potency: inconclusive: 6.31 µM [inhibitor, full curve]
[3]
  Potency: inconclusive: 10 µM [activator, single point] and inconclusive: 5.01 µM [inhibitor, partial curve]

## C=CCSc1nnc2n(CCc3ccccc3)c(=O)c3c4c(sc3n12)COC(C)(C)C4
[1]; [12]
  activity change, negative = inhibition: inconclusive: -73.5% [inhibitor]
[5]
  activity, negative = inhibition: inactive: -18.1% [at 17.2 µM]

## OCCN1CCN(CC/C=C2\c3ccccc3Sc3ccc(C(F)(F)F)cc32)CC1
[1]; at 17.2 µM (top of the series)
  activity change, negative = inhibition: inconclusive: -43.5% [inhibitor]
[1]; at 38 µM (top of the series)
  activity change, negative = inhibition: inconclusive: -64.3% [inhibitor]
[7]
  Potency: inconclusive: 12.6 µM [activator, partial curve]
[6]
  Potency: inconclusive: 6.31 µM [inhibitor, full curve]
[8]
  Potency: inconclusive: 0.0224 µM [inhibitor, full curve, poor fit]
[9]
  Potency: inconclusive: 2.51 µM [inhibitor, full curve, poor fit]
[3]
  Potency: inconclusive: 15.8 µM [inhibitor, single point]
[10]
  Potency: active: 0.891 µM
[11]
  Potency: active: 5.01 µM

## O=C(O)c1ccc(N[C@H](c2ccccc2)c2ccc3cccnc3c2O)cc1
[1]; [12]
  activity change, negative = inhibition: inconclusive: -93.2% [inhibitor] [at 7.69 µM]
[5]
  activity, negative = inhibition: inactive: -17%

## CC(=O)Oc1oc(-c2ccccc2)nc1/C=N/c1ccccn1
[1]; [12]
  activity change, negative = inhibition: active: -130%
[5]
  activity, negative = inhibition: inconclusive: -52.4% [inhibitor] [at 17.2 µM]

## O=C1c2ccccc2C(=O)c2c(NC(=O)c3ccc4c5c(ncnc35)-c3ccccc3C4=O)cccc21
[1]; [12]
  activity change, negative = inhibition: inconclusive: 16.1% [activator] [at 7.69 µM]
[5]
  activity, negative = inhibition: inactive: 0.00925%

## ClC(Br)=C(n1cnc2ccccc21)n1cnc2ccccc21
[1]; [12]
  activity change, negative = inhibition: inactive: -11.4%
[5]
  activity, negative = inhibition: inconclusive: 39.5% [activator] [at 17.2 µM]

## Cc1cc(C)nc(NC(=O)COc2ccc(Cl)cc2)c1
[1]; [12]
  activity change, negative = inhibition: inactive: -19.2% [at 7.69 µM]
[5]
  activity, negative = inhibition: inconclusive: -37.3% [inhibitor]

## Oc1oc(-c2ccco2)nc1C=Nc1cccc(Cl)c1
[1]; [12]
  activity change, negative = inhibition: inconclusive: -35.2% [inhibitor]
[5]
  activity, negative = inhibition: inconclusive: -41% [inhibitor] [at 17.2 µM]

## CC(C)(C)C1CCC2(CC1)C(C#N)=C(SCC(=O)Nc1ccccc1)NC(=O)C2C#N (stereo not drawn)
[1]; [12]
  activity change, negative = inhibition: inconclusive: -95.7% [inhibitor]
[5]
  activity, negative = inhibition: inconclusive: -52.5% [inhibitor] [at 17.2 µM]

## O=S(=O)(c1ccccc1)N1CCC2(CCN(Cc3nccs3)CC2)CC1
[1]; [12]
  activity change, negative = inhibition: inconclusive: -45.2% [inhibitor] [at 7.69 µM]
[5]
  activity, negative = inhibition: inactive: -4.54%

## Cc1ccc(N(Cc2cc3ccccc3[nH]c2=O)C(=O)c2ccco2)c(C)c1
[1]; [12]
  activity change, negative = inhibition: inactive: 25.5%
[5]
  activity, negative = inhibition: inactive: -13% [at 17.2 µM]

## N#CC(C#N)C(c1ccsc1)c1c(-c2ccccc2)[nH][nH]c1=O (stereo not drawn)
[1]; [12]
  activity change, negative = inhibition: inconclusive: -59.8% [inhibitor]
[5]
  activity, negative = inhibition: inconclusive: -48.7% [inhibitor] [at 17.2 µM]

## CC1CCc2cc(F)cc3c(O)c(C(=O)NCc4ccco4)c(=O)n1c23 (stereo not drawn)
[1]; [12]
  activity change, negative = inhibition: inconclusive: -54.6% [inhibitor]
[5]
  activity, negative = inhibition: inactive: -2.44% [at 17.2 µM]

## O=S1CCCSC1c1cccnc1 (stereo not drawn)
[1]; [12]
  activity change, negative = inhibition: inactive: 9.76%
[5]
  activity, negative = inhibition: inactive: 2.7% [at 17.2 µM]

## COCc1cc(C)nc(SCC(=O)Nc2ccc(C)c(C)c2)c1C#N
[1]; [12]
  activity change, negative = inhibition: inactive: 3.23%
[5]
  activity, negative = inhibition: inconclusive: -0.237% [inhibitor] [at 17.2 µM]

## Cc1ccc2[nH]c3c(N4CCCCCC4)ncnc3c2c1
[1]; [12]
  activity change, negative = inhibition: inconclusive: -66.5% [inhibitor]
[5]
  activity, negative = inhibition: inconclusive: -35.4% [inhibitor] [at 17.2 µM]

## CCSc1nnc(NC(=O)C(CC)(C(F)(F)F)C(F)(F)F)s1
[1]; [12]
  activity change, negative = inhibition: inconclusive: -42.4% [inhibitor]
[5]
  activity, negative = inhibition: inconclusive: -40% [inhibitor] [at 17.2 µM]

## COc1ccc(Cn2ccnc2)cc1Br
[1]; [12]
  activity change, negative = inhibition: inactive: -14%
[5]
  activity, negative = inhibition: inconclusive: -71% [inhibitor] [at 17.2 µM]

## Cc1cc(C)n(CC(=O)N2c3ccccc3Sc3ccccc32)n1
[1]; [12]
  activity change, negative = inhibition: inconclusive: -68% [inhibitor]
[5]
  activity, negative = inhibition: inconclusive: 185% [activator] [at 17.2 µM]

## C=C(CC(=O)O)C(=O)O (tested in a mixture with another compound)
[1]; [12]
  activity change, negative = inhibition: inconclusive: -32.6% [inhibitor] [at 7.69 µM]
[5]
  activity, negative = inhibition: inactive: -4.69%
